Consider 65 compounds from paper PMC6919601, “Identification of Plasmodium dipeptidyl aminopeptidase allosteric inhibitors by high throughput screening” (PLoS ONE, 2019).

Several values for one entry are separate records, joined by “and”; a condition that tells them apart may be missing. Identical values can stand only once. The whole screen tested about 110,000 compounds, of which about 230 (0.21%) showed an effect of 50% or more. Some of the results follow.
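Note: 30 min substrate incubation versus DMSO and 10 µM JCP410 controls.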

Chain of DPAP1 (Q8IIJ9 whole entry, looked up): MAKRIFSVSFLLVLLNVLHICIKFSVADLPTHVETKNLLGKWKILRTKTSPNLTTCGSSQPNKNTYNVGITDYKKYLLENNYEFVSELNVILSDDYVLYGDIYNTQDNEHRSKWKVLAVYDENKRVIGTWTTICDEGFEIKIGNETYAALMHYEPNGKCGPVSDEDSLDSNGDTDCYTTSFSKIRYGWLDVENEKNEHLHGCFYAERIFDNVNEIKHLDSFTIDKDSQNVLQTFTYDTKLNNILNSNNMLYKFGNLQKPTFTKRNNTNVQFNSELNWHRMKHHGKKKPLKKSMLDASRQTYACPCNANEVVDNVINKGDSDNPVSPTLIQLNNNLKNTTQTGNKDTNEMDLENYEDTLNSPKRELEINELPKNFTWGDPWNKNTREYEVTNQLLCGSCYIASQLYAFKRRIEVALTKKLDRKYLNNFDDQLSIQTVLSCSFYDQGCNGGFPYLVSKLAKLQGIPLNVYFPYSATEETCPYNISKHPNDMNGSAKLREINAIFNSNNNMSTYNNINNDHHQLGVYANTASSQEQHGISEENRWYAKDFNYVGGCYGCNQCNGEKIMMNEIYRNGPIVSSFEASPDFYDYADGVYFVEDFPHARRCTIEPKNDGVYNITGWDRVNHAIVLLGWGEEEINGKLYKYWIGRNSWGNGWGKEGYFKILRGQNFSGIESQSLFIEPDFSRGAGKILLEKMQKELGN

This test addresses DPAP1 (Plasmodium falciparum, UniProt Q8IIJ9). The test is described as follows: primary screen, percent inhibition; read by cleavage of a fluorogenic dipeptide substrate; higher = more effect of the substance. Further details: species or system P. falciparum D10 trophozoite lysates; single well.
On to `COC(=O)C1=C(C)N=C2SC(C)C(=O)N2C1c1ccc(OCc2ccccc2)cc1` (centres unmarked), for which the “% Inhibition @ 10 uM” value is -1.4%.

`COc1ccc(-c2c(C)nn3c(N4CCN(c5ccccn5)CC4)cc(C)nc23)cc1OC`: the “% Inhibition @ 10 uM” value was -0.138%.

As to `Oc1ccc(CN2CCN(c3ncccn3)CC2)cc1`, the “% Inhibition @ 10 uM” value is -5.5%.

Consider `c1ccc(-n2nnnc2SCCCNCc2ccc3c(c2)OCO3)cc1`, for which the “% Inhibition @ 10 uM” value is 5.39%.

In the case of `Cc1cccc(NC(=O)CSc2ncccn2)c1`, the “% Inhibition @ 10 uM” value stood at 0.245%.

As to `CC(C)C(=O)NCCCc1nc2ccccc2n1Cc1ccccc1Cl`, the “% Inhibition @ 10 uM” value was 2.73%.

`O=C(O)C1C2C=CC3(CN(Cc4ccccn4)C(=O)C13)O2` (centres unmarked): the “% Inhibition @ 10 uM” value is -2.87%.

Take `NS(=O)(=O)c1ccc(NC(=O)Cc2ccccc2)cc1`: the “% Inhibition @ 10 uM” value was -1.44%.

As for `Cc1sc(-n2cccc2CNCc2ccc(F)cc2)c(C(=O)O)c1C`, the “% Inhibition @ 10 uM” value is given as -5.15%.

For the compound `N=C(NOC(=O)COc1ccc(Cl)cc1Cl)c1ccncc1`, the “% Inhibition @ 10 uM” value came out at 0.128%.

For the compound `CCCC(=O)C1=C(NCCO)CC(C)(C)CC1=O`, the “% Inhibition @ 10 uM” value is -7.02%.

Take `COc1ccccc1C(=O)O/N=C(\c1ccccc1)c1ccncc1`: the “% Inhibition @ 10 uM” value came to 3.16%.

Regarding `CC(C)NC(=O)c1ccc([N+](=O)[O-])cc1`, the “% Inhibition @ 10 uM” value was -4.87%.

As for `Cc1ccc(-c2cc(NC(=O)CC(C)C)on2)cc1`, the “% Inhibition @ 10 uM” value was 1.9%.

As to `Cc1ccc(C(=O)N2CCCCC2)cc1`, the “% Inhibition @ 10 uM” value is listed as -0.357%.

Turning to `Cc1ccc(OC(C)c2nc(-c3ccc(OCC(N)=O)cc3)no2)cc1C` (centres unmarked), the “% Inhibition @ 10 uM” value is -0.828%.

For `C=CCN1C=CC=C/C1=C\c1sc2ccccc2[n+]1CC`, the “% Inhibition @ 10 uM” value is -1.11%.

Consider `COc1ccc(OC)c(NS(=O)(=O)c2ccc(C)cc2)c1`, for which the “% Inhibition @ 10 uM” value worked out at 1.61%.

For `O=C(c1ccccc1)C1Oc2ccccc2OCC1(O)c1ccccc1` (centres unmarked), the “% Inhibition @ 10 uM” value is reported as -2.59%.

As to `CCOc1cc(/C=C2\C(=O)ON=C2c2ccccc2)ccc1OC`, the “% Inhibition @ 10 uM” value is listed as -1.6%.

Take `Cn1c(=O)c2ncn(CC(=O)Nc3ccc(F)cc3)c2n(C)c1=O`: the “% Inhibition @ 10 uM” value is reported as 0.161%.

Take `CCn1c(=N)n(CC(=O)c2ccc(C)cc2)c2ccccc21`: the “% Inhibition @ 10 uM” value is -0.661%.

Regarding `CC(=O)c1ccc(N2CCN(Cc3ccc(F)cc3F)CC2)cc1`, the “% Inhibition @ 10 uM” value is given as -1.64%.

Consider `CCCCNC(=O)c1cccc2c1-c1ccccc1C2=O`, for which the “% Inhibition @ 10 uM” value is recorded as -0.478%.

For the compound `COc1ccccc1C1=N/C(=C\c2ccc(Cl)cc2Cl)C(=O)O1`, the “% Inhibition @ 10 uM” value is 3.1%.

Turning to `O=C(NCc1cccnc1)c1ccc2nc3ccsc3c(=O)n2c1`, the “% Inhibition @ 10 uM” value is reported as -1.54%.

For `Cc1cc(Cl)ccc1OCC(=O)Nc1ccc(Cl)cn1`, the “% Inhibition @ 10 uM” value is recorded as 7.73%.

Regarding `O=C(NCc1cccnc1)C1CCN(S(=O)(=O)c2cccc3nsnc23)CC1`, the “% Inhibition @ 10 uM” value amounted to 0.208%.

With `O=C1c2ccc(Br)cc2C(=O)N1c1cc(Cl)ccc1O`, the “% Inhibition @ 10 uM” value is 6.49%.

Turning to `Cc1noc(C(=O)Nc2sc3c(c2C#N)CCC3)c1Cl`, the “% Inhibition @ 10 uM” value amounted to 1.62%.

Consider `COc1ccc2nc3oc(C(=O)NC4CCN(Cc5ccccc5)CC4)cc3cc2c1`, for which the “% Inhibition @ 10 uM” value worked out at 0.208%.

On to `Cc1ccc(CCSc2cc(C(C)(C)C)c(F)c(C(C)(C)C)c2)cn1`, for which the “% Inhibition @ 10 uM” value is -1.42%.

`CCOc1cccc(OCC)c2c(C)[o+]c(C)c1-2`: the “% Inhibition @ 10 uM” value was 4.18%.

Turning to `O=C(O)C1CCN(S(=O)(=O)c2ccc(Br)s2)CC1`, the “% Inhibition @ 10 uM” value was -7.66%.

With `O=C(Nc1ccc(Cl)c(Cl)c1)c1ccccc1NC(=O)C1CCCCC1C(=O)O` (centres unmarked), the “% Inhibition @ 10 uM” value is -0.95%.

Turning to `Cc1ccc(OCCC(=O)Nc2cc(C)ccc2F)cc1`, the “% Inhibition @ 10 uM” value was determined as 6.65%.

`O=C(NC(Cc1ccccc1)c1ccc2c(c1)OCCCO2)c1ccco1` (centres unmarked): the “% Inhibition @ 10 uM” value turned out to be 1.27%.

Turning to `COc1ccc(CNCCSc2nnnn2C)c(OC)c1OC`, the “% Inhibition @ 10 uM” value is 3.27%.

`Nc1nonc1-c1nc2ccccc2n1CC(=O)Nc1ccc(OC(F)(F)F)cc1`: the “% Inhibition @ 10 uM” value is 0.231%.

`CC1=NC(C)=C(C(=O)OC(C)(C)C)C(C(C)C)/C1=C(\O)OC(C)(C)C` (centres unmarked): the “% Inhibition @ 10 uM” value was -2.09%.

In the case of `O=C(NCCCN1CCOCC1)c1ccc2c(c1)OCO2`, the “% Inhibition @ 10 uM” value is given as -5.85%.

For `CN1CCN(C(=O)CSc2nc3ccc(NC(=O)c4ccccc4F)cc3s2)CC1`, the “% Inhibition @ 10 uM” value is 2.01%.

On to `CC(=O)C1=C(O)C(=O)N(CCCN2CCOCC2)C1c1ccc(C)cc1` (centres unmarked), for which the “% Inhibition @ 10 uM” value is given as 1.79%.

As for `CC1NC(C)(C)CC(C)(C)c2ccccc21` (centres unmarked), the “% Inhibition @ 10 uM” value is on record as -3.26%.

Turning to `CCC(C(=O)NCc1ccc2c(c1)OCO2)n1nc(C)c2sc3ccccc3c2c1=O` (centres unmarked), the “% Inhibition @ 10 uM” value came out at 0.39%.

As for `CCOc1ccccc1C(=O)NCc1cccnc1`, the “% Inhibition @ 10 uM” value is recorded as 2.01%.

In the case of `CC1=C(C(=O)OCC2CCCCC2)C(c2cccc(Br)c2)NC(=O)N1` (centres unmarked), the “% Inhibition @ 10 uM” value is 3.61%.

Turning to `CC(CC(=O)NCc1ccccc1)C1CCCO1` (centres unmarked), the “% Inhibition @ 10 uM” value came to 0.986%.

Turning to `O=C1NC(=S)NC(=O)C1=C/C=C/c1ccccc1`, the “% Inhibition @ 10 uM” value was -4.31%.

As to `COc1ccc(/N=c2\sc(C)c(-c3ccc(C)cc3)n2CCO)cc1`, the “% Inhibition @ 10 uM” value was found to be 1.02%.

For the compound `CC(C)(C)OC(=O)N[C@@H](Cc1cc(Cl)c(O)c(Cl)c1)C(=O)NC1(C#N)CC1`, the “% Inhibition @ 10 uM” value is -1.41%.

As to `Cc1cc(C)n(Cc2cc(C)c(Cn3nc(C)cc3C)cc2C)n1`, the “% Inhibition @ 10 uM” value came to 9.21%.

As to `CCN(CC)S(=O)(=O)c1ccc(-c2csc(Nc3ccc(Br)cc3)n2)cc1`, the “% Inhibition @ 10 uM” value is recorded as -4.21%.

As for `CC(C)OCCCNC(=O)CNC(=O)c1cccs1`, the “% Inhibition @ 10 uM” value came out at 0.387%.

Consider `Cc1nn(CCC(=O)NCc2cccc(Cl)c2)c(=O)c2nn(-c3ccccc3)c(C)c12`, for which the “% Inhibition @ 10 uM” value is on record as -1.03%.

`COc1cc(/C=C2/NC(=S)NC2=O)ccc1OCc1ccc([N+](=O)[O-])cc1`: the “% Inhibition @ 10 uM” value was -1.15%.

Turning to `Cc1cc(C)c(NC(=O)C2CCCN2CCO)c(C)c1` (centres unmarked), the “% Inhibition @ 10 uM” value is 0.716% and 1.57%.

As for `CC1C/C(=C/c2ccco2)C(=O)/C(=C/c2ccco2)C1` (centres unmarked), the “% Inhibition @ 10 uM” value is -0.503%.

Take `COC(=O)c1ccc2c(c1)C(=O)/C(=C/c1cccc(OC)c1OC)O2`: the “% Inhibition @ 10 uM” value stood at 1.89%.

For `O=C(O)c1cnn2c1NC(c1ccc(Br)cc1)CC2C(F)(F)F` (centres unmarked), the “% Inhibition @ 10 uM” value is -1.88%.

`CC(C)CC(=O)C1=C(O)C(=O)N(Cc2ccccc2)C1c1ccccc1F` (centres unmarked): the “% Inhibition @ 10 uM” value is -3.95%.

Take `CC1(C)CC(O)(C2(O)CC(C)(C)NC(C)(C)C2)CC(C)(C)N1`: the “% Inhibition @ 10 uM” value is given as -2.42%.

In the case of `COc1ccc(CNc2ncc3c(n2)CC(c2ccccc2)CC3=O)cc1` (centres unmarked), the “% Inhibition @ 10 uM” value stood at 0.561%.

For `CCOc1cc(C2c3c(-c4ccccc4O)n[nH]c3C(=O)N2CCO)ccc1OCc1ccccc1` (centres unmarked), the “% Inhibition @ 10 uM” value is listed as -4.95%.

As for `O=[N+]([O-])c1ccc(N2CCOCC2)cc1Sc1cccc2cccnc12`, the “% Inhibition @ 10 uM” value worked out at 3.61%.
